This sample is rich in variants without activity.
B1: TPR 5TU (parent)
chain: GGAUCUUCUCGAUCUAACAAAAAAGACAAAUCUGCCACAAAGCUUGAGAGCAUCUUCGGAUGCAGAGGCGGCAGCCUUCGGUGGCGCGAUAGCGCCAACGUUCUCAACUAUGACACGCAAAACGCGUGCUCCGUUGAAUGGAGUUUAUCAUG

Variants of: B1
Assay: polymerase ribozyme fitness, log enrichment relative to wild type (log ratio); higher = more active; in vitro selection for triplet polymerase activity
Summary of the method: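 A heterodimeric triplet polymerase ribozyme had each of its subunits mutagenized by PCR into a library, which was transcribed. One round of in vitro selection, done in triplicate, annealed each library with a biotinylated primer, its partner subunit and triplets, then incubated it frozen at −7 °C before gel excision of extended constructs, streptavidin-bead capture and RT-PCR. Fitness is the logarithm of genotype enrichment relative to wild-type enrichment, based on Illumina sequencing of inputs and outputs and inverse-variance-weighted replicate averages. A base-2 logarithm is used, and genotypes were kept only with ≥10 input reads and ≥1 read per output.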

Variant | polymerase ribozyme fitness (log ratio)
GGAUCUUCUCGAUCUAACAAAAAAGACAAAUCUGCCACAAAGCUUGAGAGCGUCUUCGGAUGCAGAGACGGCAGCCUUCGGUGGCGCCAUAGCGCAAACGUUCUCAAAUAUGACACGCAAAACGCGUGCUCCGUUGAAUGGAGUUUACCAUG [A52G G68A G88C C96A C108A U148C] | ≤ -4.2
GGAUCUUCUCGAUCUAACAAAAAAGACAAAUCUGCCACAAAGCUUGAGAGCGUCUUCGGAUGCAGAGGCCGCAGCCUUCGGUGGCGCGAUAGCGCAAACGUUCUCAACUAUGACACGCAAAACGAGUGCUCCGUUCAAUGGAGUUUAUCAUG [A52G G70C C96A C125A G136C] | ≤ -4.2
GGAUCUUCUCGAUCUAACAAAAAAGACAAAUCUGCCACAAAGCUUGAGAGCGUCUUCGGAUGCAGAGGCGGCAGCCUUCGGUUGCGCGAUAGCGCCAACGUUCUCAACUAUGACACGCAAAACGCGUGCUCCGAUGAAUUGAGUUUAUCAUG [A52G G83U U134A G140U] | ≤ -4.2
GGAUCUUCUCGAUCUAACAAAAAAGACAAAUCUGCCACAAAGCUUGAGAGCGACGUCGGAUGCAGAGGCGGCAGCCUUCGGUUGCGCGAUAGCGCCAACGUUCUCAACUAUGUCACGCAAAACGUGUGCUCCGUUGAAUGGAGUUUAUCAUG [A52G U53A U55G G83U A113U C125U] | ≤ -4.2
GGAUCUUCUCGAUCUAACAAAAAAGACAAAUCUGCCACAAAGCUUGAGAGCGUCUUCGGAUGCAGAUGCGGCAGCCUUCGGUGGCGCGAUAGCGCCAACGUUCUCAACUAUGACACGCAAAACGCGUGCUCCGUUGAAUGGGGUUUAUCAUG [A52G G67U A142G] | -3.52
GGAUCUUCUCGAUCUAACAAAAAAGACAAAUCUGCCACAAAGCUUGAGAGCGUCUUCUGAUGCAGAGGCGGCAGACUUCGGUGGCGCGAUAGCGCCAACGUUCUCAACUAUGACACGCAAAACGCGUGCUCCGUUGAAUGGAGUUUACCAUG [A52G G58U C75A U148C] | ≤ -4.2
GGAUCUUCUCGAUCUAACAAAAAAGACAAAUCUGCCACAAAGCUUGAGAGCGUCUUCCGAUGCAGAGACGGCAGCAUUCGGUGGUGCGAGAGCGCCAACGUUCUCAACUAUGACACUCAAAACGCGUGCUCCGUUGAAUGGAGUUUAUCAUG [A52G G58C G68A C76A C85U U90G G117U] | ≤ -4.2
GGAUCUUCUCGAUCUAACAAAAAAGACAAAUCUGCCACAAAGCUUGAGAGCGUCUUCGGAUGCAGAGUCGGCAGCCUUCGGUGGCGCGAUUGCGCCAACGUUCUCAACUAUGACACGCAAAACGAGUGCUCCGUUGAAUGGAGUUUAUCAUG [A52G G68U A91U C125A] | ≤ -4.2
GGAUCUUCUCGAUCUAACAAAAAAGACAAAUCUGCCACAAAGCUUGAGAGCGUCUUCGGAUGCAGAGGCGGCAGCCUUCGGUGGCGCGAUAGCACCAACGUUCUCAACUAUGACACGCAAAACGCGUGCUCCGUUGAAUGCAGUUUAACAUG [A52G G94A G141C U148A] | ≤ -4.2
GGAUCUUCUCGAUCUAACAAAAAAGACAAAUCUGCCACAAAGCUUGAGAGCGUCUUCGGAUGCAGAGGCGGCAGCCUUCGGUGGCGCUAUAGCGCCAACGUUCUCAACUAUGACACGCAAAACGCGUGCUCCGUUGAAUGGAGUUUAUCAUG [A52G G88U] | ≤ -4.2
GGAUCUUCUCGAUCUAACAAAAAAGACAAAUCUGCCACAAAGCUUGAGAGCGUCUUCGGAUGCAGAGGCGGCAGCCUUCGGUGUCGCGAUAGCGCCAACGUUCUCAACUAUGACACGCAAAACGCGUGCUCCGUUGAAUGGAGUUUAUCAUG [A52G G84U] | -1.32
GGAUCUUCUCGAUCUAACAAAAAAGACAAAUCUGCCACAAAGCUUGAGAGCGUCUUCGGAUGCAGAGGCGGCAGCCUUCGGUGGCACGAUAGCGCCAACGUUCUCAACUAUGACACGCAAAACGCGUGCUCCGUUGAAUGGAGUUUAUCAUG [A52G G86A] | -0.796
GGAUCUUCUCGAUCUAACAAAAAAGACAAAUCUGCCACAAAGCUUGAGAGCGUCUUCGGAUGCAGAGGCGGCAGCCUUCGGUGGCUCGAUAGCGCGAACGUUCUCAACUAUGACACGCAAAACGCGUGCUCCGUUGAAUGGAGCUUAUCACG [A52G G86U C96G U144C U151C] | ≤ -4.2
GGAUCUUCUCGAUCUAACAAAAAAGACAAAUCUGCCACAAAGCUUGAGAGCGUCUUCGGAUGCAGAGGCGGCAGCCUUCGGUGUCGCGAUAGCGCCAACGUUCUCAACUAUGACACGCAAAACGCGUGCUCCGUUGAAUGGAGGUUAUCAUG [A52G G84U U144G] | -1.56
GGAUCUUCUCGAUCUAACAAAAAAGACAAAUCUGCCACAAAGCUUGAGAGCGUCUUCGGAUGCAGAGGCGGCAGCCUUCGGUGGCACGAUAGCUCUAACGUUCUCAACUAUGACACGCAAAACGCGUGCUCCGUUGAAUGGAGUUUAUCAUG [A52G G86A G94U C96U] | ≤ -4.2
GGAUCUUCUCGAUCUAACAAAAAAGACAAAUCUGCCACAAAGCUUGAGAGCGUCUUCGGAUGCAGAGGCGUCGGCAUUCGGUGGCGCUAUAGCGCCAACGUUCUCGACUAUGACACGCAAAACGCGUGCUCCGUUGAAUGGAGUUUAUCAUG [A52G G71U A73G C76A G88U A106G] | ≤ -4.2
GGAUCUUCUCGAUCUAACAAAAAAGACAAAUCUGCCACAAAGCUUGAGAGCGUCUUCGGAUGCAGAGGCGGCAGCCUUCGAUAGCGCGAUAGCGCCAUCGUUCUCAACUAUGACACGCAAAACGCGUGCUCCGUUGAAUGGAGUUUAUCAUG [A52G G81A G83A A98U] | -1.22
GGAUCUUCUCGAUCUAACAAAAAAGACAAAUCUGCCACAAAGCUUGAGAGCGUCUUCUGAUGCAGAGGCGGCAGCCUUCGGUGGCGCGAUAGCGCCAACGUUCUCAACUGUGACACGCAAAACGCGUGCUCCGUUGAAUGGAUUUUAUCAUG [A52G G58U A110G G143U] | ≤ -4.2
GGAUCUUCUCGAUCUAACAAAAAAGACAAAUCUGCCACAAAGCUUGAGAGCGAUUUCGGAUGCAGAGGCGGCAGCCUUCGGUGGCGCGAUAGGGCCAACGUUCUCAACUAUUACACGCAAAACGCGUGCUCCGUUGAAUGGAGUUUAUCAUG [A52G U53A C54U C93G G112U] | ≤ -4.2

— the RNAGym collection of RNA variant scans (doi:10.1073/pnas.2313332121)
